The labels stand for the following.
B1: CPEB3 Ribozyme (parent)
chain: UAACAGGGGGCCACAGCAGAAGCGUUCACGUCGCAGCCCCUGUCAGAUUCUGGUGAAUCUGCGAAUUCUGCUGUAUAUCUC

Read counts are not given, so values of variants with three or more changes are uncertain.

The data set covers variants of B1. Put plainly: self-cleavage, relative activity (ratio to wild type); higher = more cleavage; in vitro, sequencing. The method in brief: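 Relative activity was defined as the cleaved/total read fraction for a variant divided by the same fraction for the unmutated ribozyme. CPEB3 self-cleaving ribozyme libraries were made by rounds of error-prone PCR, barcoded, and transcribed in vitro with T7 RNA polymerase for 5 hours at 37°C, and cleavage ran through transcription plus a 15 min DNase I step before EDTA. Illumina sequencing of template-switched reverse transcripts gave the reads, and DNA sequencing mapped the barcodes. Averages come from three batches, using variants with at least 5 reads.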
For the variant UAACAGGGGGCCACAGCAGAAGCGUUCACGUCGCAGCCCCUGUCAGAUUCUAGUGGACCUGCGAAUUCUGCUGUAUAUCUC [G52A A56G U58C], the self-cleavage came to 0.53. Regarding UAACAGGGGGCCACAGCAGAAGCGUUCACGUCGCAGCCCCUGUCAGAUUCUGGCUAAUCUGCGAAUCCUGCUGUAUAUCUC [U54C G55U U67C], the self-cleavage turned out to be 0.16. UAACAGGGGGCCACAGCAGAAGCGUUCACGUCGCAGCCCCUGUCAGAUUCUGGAGAAUCAGCGAUUUCUGCUGUAUAUCUC [U54A U60A A65U]: the self-cleavage stood at 0.44.

With UAACAGGGGGCCACAGCAGAAGCGUUCACGUCGCAGCCCCUGUCAGAUUCUGGCGUAUCUGCGAAUUCUGUUGUAUAUCUC [U54C A56U C71U], the self-cleavage was 0.22. With UAACAGGGGGCCACAGCAGAAGCGUUCACGUCGCAGCCCCUGUCAGAUUCCAGUGAAUCUGCGAAUUCUGCUGUAUAACUC [U51C G52A U78A] the figure was 1.12; with UAACAGGGGGCCACAGCAGAAGCGUUCACGUCGCAGCCCCUGUCAGAUUCCGGUGAAUCUGCGGAUUCCGCUGUAUAUCUC [U51C A64G U69C], 0.53.

With UAACAGGGGGCCACAGCAGAAGCGUUCACGUCGCAGCCCCUGUCAGAUUCCGGUGAAUCUGCGAAUUCCGCCGUAUAUCGC [U51C U69C U72C U80G], the self-cleavage turned out to be 0.55.

In the case of UAACAGGGGGCCACAGCAGAAGCGUUCACGUCGCAGCCCCUGUCAGAUUCCGGUGGAUCUGCGAAUUCCGCUGUAUAUCUC [U51C A56G U69C], the self-cleavage was 0.53. In the case of UAACAGGGGGCCACAGCAGAAGCGUUCACGUCGCAGCCCCUGUCAGAUUCCGGUGAAUCUGCGAAAUCUGCUGUAUAUCCC [U51C U66A U80C], the self-cleavage stood at 0.48. With UAACAGGGGGCCACAGCAGAAGCGUUCACGUCGCAGCCCCUGUCAGAUUCUGGCGAAUCUGCGUAUUCUGCUGCAUACCUC [U54C A64U U74C U78C] the figure was 0.23. Take UAACAGGGGGCCACAGCAGAAGCGUUCACGUCGCAGCCCCUGUCAGAUUCGGGUGAAUCUGCGAAUUCCGCUGUACAUCUC [U51G U69C U76C]: the self-cleavage came out at 0.6. On to UAACAGGGGGCCACAGCAGAAGCGUUCACGUCGCAGCCCCUGUCAGAUUCCAGUGAAUCUGCGAGUUCUGCUGUAUAUCUC [U51C G52A A65G], for which the self-cleavage stood at 0.63. For UAACAGGGGGCCACAGCAGAAGCGUUCACGUCGCAGCCCCUGUCAGAUUCUGGAGAAUCAGUGAAUUCUGCUGUAAAUCUC [U54A U60A C62U U76A], the self-cleavage was determined as 0.31. With UAACAGGGGGCCACAGCAGAAGCGUUCACGUCGCAGCCCCUGUCAGAUUCUAGUGAGUCUGGGAAUUCUGCUGUAUAUCUC [G52A A57G C62G], the self-cleavage was 0.43. UAACAGGGGGCCACAGCAGAAGCGUUCACGUCGCAGCCCCUGUCAGAUUCUGCUGAGUCUGCGAGUUCUGCAGCAUAUCUC [G53C A57G A65G U72A U74C]: the self-cleavage was found to be 0.2. For UAACAGGGGGCCACAGCAGAAGCGUUCACGUCGCAGCCCCUGUCAGAUUCUGGAGAAUCUGCGGAUUCUGCAGUACAUCUC [U54A A64G U72A U76C], the self-cleavage came to 0.75. With UAACAGGGGGCCACAGCAGAAGCGUUCACGUCGCAGCCCCUGUCAGAUUCCGGUGAAUCAGCGAAUUCAGCUGUAUAUCUC [U51C U60A U69A] the figure was 0.41. UAACAGGGGGCCACAGCAGAAGCGUUCACGUCGCAGCCCCUGUCAGAUUCUGGAGAACCUGCGAAUUCUGCUGGAUAUCUC [U54A U58C U74G]: the self-cleavage stood at 1.19. Turning to UAACAGGGGGCCACAGCAGAAGCGUUCACGUCGCAGCCCCUGUCAGAUUCCGGUGAAUCUGCGAACCCUGCUGUAUAUCUC [U51C U66C U67C], the self-cleavage is 0.37. To UAACAGGGGGCCACAGCAGAAGCGUUCACGUCGCAGCCCCUGUCAGAUUCGGGUGAGUCUGCAAACUCUGCUGUAUAUCUC [U51G A57G G63A U66C] belongs 0.41; to UAACAGGGGGCCACAGCAGAAGCGUUCACGUCGCAGCCCCUGUCAGAUUCUGGCGAAUCUGCGAAUUCUGCUUUAUUUCUC [U54C G73U A77U], 0.7.

As to UAACAGGGGGCCACAGCAGAAGCGUUCACGUCGCAGCCCCUGUCAGAUUCUGGAGAAUCUGCGAAUUCUGCUGUGUACCUC [U54A A75G U78C], the self-cleavage amounted to 0.68. Turning to UAACAGGGGGCCACAGCAGAAGCGUUCACGUCGCAGCCCCUGUCAGAUUCUGAUGAAUCUGCGAAUUCUGCCGUAUAUCAC [G53A U72C U80A], the self-cleavage is 1.21. On to UAACAGGGGGCCACAGCAGAAGCGUUCACGUCGCAGCCCCUGUCAGAUUCCGGUGAGUCUGCGAAUUCAGCUGUAUAUCUC [U51C A57G U69A], for which the self-cleavage stood at 0.39. Turning to UAACAGGGGGCCACAGCAGAAGCGUUCACGUCGCAGCCCCUGUCAGAUUCUGGAGAACCUGCGAAUUCUGCUGUAUUUCUC [U54A U58C A77U], the self-cleavage was found to be 0.53. As for UAACAGGGGGCCACAGCAGAAGCGUUCACGUCGCAGCCCCUGUCAGAUUCUAGUGAAUCUGCGAGUUCCGCUGUAUAUCUC [G52A A65G U69C], the self-cleavage was determined as 0.35. As for UAACAGGGGGCCACAGCAGAAGCGUUCACGUCGCAGCCCCUGUCAGAUUCAGGUGAAUCUGCGAAUUCUGCAGUAUAUCCC [U51A U72A U80C], the self-cleavage turned out to be 1.29. Consider UAACAGGGGGCCACAGCAGAAGCGUUCACGUCGCAGCCCCUGUCAGAUUCUGGCGAGUCUGCGAAUUCUGCUGUAUAUCAC [U54C A57G U80A], for which the self-cleavage came to 0.86. Take UAACAGGGGGCCACAGCAGAAGCGUUCACGUCGCAGCCCCUGUCAGAUUCGGGUGAACCUGCGAGUUCUGCUGUAUAUCAC [U51G U58C A65G U80A]: the self-cleavage came to 0.23. Regarding UAACAGGGGGCCACAGCAGAAGCGUUCACGUCGCAGCCCCUGUCAGAUUCUGGCGAAUCUGCGAGUUCUGCUGUAUAUCUA [U54C A65G C81A], the self-cleavage was 0.52. With UAACAGGGGGCCACAGCAGAAGCGUUCACGUCGCAGCCCCUGUCAGAUUCUGGCGAAUCUGCUAAUUCGGCUGUAUAUCUC [U54C G63U U69G] the figure was 0.87. With UAACAGGGGGCCACAGCAGAAGCGUUCACGUCGCAGCCCCUGUCAGAUUCUGGCGAAUCUGCGGAUUCUGCUGCAUAUCUC [U54C A64G U74C] the figure was 1.13; with UAACAGGGGGCCACAGCAGAAGCGUUCACGUCGCAGCCCCUGUCAGAUUCUGGCGAAUCUGCGAAUUCUGUCGUAUAUCUC [U54C C71U U72C], 0.51; with UAACAGGGGGCCACAGCAGAAGCGUUCACGUCGCAGCCCCUGUCAGAUUCUGAUGAAUCUGCGGAUUCUGCUGUAAAUCUC [G53A A64G U76A], 1.02.

The values above are taken from the RNAGym collection of RNA variant scans (doi:10.1093/nar/gkz1192).
